The values that follow come from PubChem BioAssay AID1508642 (National Center for Advancing Translational Sciences (NCATS), 2021).

Molecules are shown by their SMILES. Out of some 43,000 compounds screened, about 200 (0.47%) were called active. Roughly 12% stayed inconclusive and do not appear here. Calls follow the shape of the dose curve; as a rule, active = well fitted cell-killing curve with a large enough effect; inconclusive = small, poorly fitted or top-dose-only effect, or effect the other way; inactive = flat fitted curve, though single readings scatter. This is one part of the list.
% is scaled to controls: 0 for no effect and ±100 for the full control effect.

This experiment in a line: Cell viability qHTS assay in S16 Pmp22-F2sN cells. Also: nearly all actives have a fitted effect of over 65% in size. The settings on record: S16 Pmp22-F2sN Schwann cells (luciferase reporters placed in the Pmp22 gene) viability, CellTiter-Glo, 24 h; series mostly up to 57.5 µM; activity change, negative = cytotoxicity: at the top concentration. The method in brief:
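S16 Schwann cells carrying the Pmp22-F2sN reporter, seeded in 1536-well format, were exposed to library compounds for 24 h at 37C. Viability was read as CellTiter-Glo luminescence after 15 min at room temperature.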
A general note: Quantitative high-throughput screening tests each substance at several concentrations.
For the compound `Cn1c(=O)c2c(ncn2CC(=O)Nc2cc(Cl)cc(Cl)c2)n(C)c1=O`, the “activity change, negative = cytotoxicity” value was inactive: 4.31%.

Take `Cc1nn(C)c2c1c(C(F)(F)F)cc(=O)n2C(C)C(=O)N1CCN(c2ccccc2)CC1` (configuration not stated): the “activity change, negative = cytotoxicity” value is inactive: 0.18%.

Regarding `CC(C)(C)OC(=O)N1CCC(c2c(C(=O)N3CCOCC3)cnn2-c2ccccc2Cl)CC1`, the “activity change, negative = cytotoxicity” value was inactive: 5.61%.

On to `COc1ccc(C2CC(=O)c3cnc4c(-c5ccccc5)c(C)nn4c3C2)c(OC)c1` (configuration not stated), for which the “activity change, negative = cytotoxicity” value is inactive: 10.9%.

Take `CCCCNC(=O)CCCn1c(=O)c2ccccc2n(Cc2ccc(Cl)cc2)c1=O`: the “activity change, negative = cytotoxicity” value was inactive: 25.8%.

As to `COc1ccc2c(c1)c1c(c(=O)n(-c3ccc(OC)c(OC)c3)c(=O)n1Cc1ccc(C)cc1)n2C`, the “activity change, negative = cytotoxicity” value is inactive: 12.2%.

Turning to `Fc1ccc(-c2noc3ncnc(N4CCCCC4)c23)cc1`, the “activity change, negative = cytotoxicity” value was inactive: -4.15%.

Take `O=C(Cc1ccccc1)Nc1cc(-c2nc3cc(Cl)ccc3o2)ccc1Cl`: the “activity change, negative = cytotoxicity” value was inactive: -11.2%.

For the compound `N#Cc1ccccc1S(=O)(=O)N1CCC(Oc2ccc(-n3cnnn3)cc2)CC1`, the “activity change, negative = cytotoxicity” value was inactive: -22%.

In the case of `COc1ccc(Cc2nc3ccc(C(=O)NCc4cc(Br)ccc4OC)cc3o2)cc1`, the “activity change, negative = cytotoxicity” value was inactive: 2.33%.

`CCc1c(C)nc2nncn2c1Nc1cccc(C)c1`: the “activity change, negative = cytotoxicity” value was inactive: -1.43%.

Turning to `COc1ccc(-c2nc(SCC(=O)Nc3cccc(C(C)=O)c3)n[nH]2)cc1`, the “activity change, negative = cytotoxicity” value was inactive: -3.59%.

Turning to `COc1ccc(C(=O)Nc2ccccc2)cc1S(=O)(=O)Nc1ccc(Br)cc1`, the “activity change, negative = cytotoxicity” value is inactive: 7.5%.

For `O=C(OCc1cc(=O)n2nc(C3CC3)sc2n1)c1ccc(NC(=O)c2ccccc2Cl)cc1`, the “activity change, negative = cytotoxicity” value is inactive: 6.06%.

For `Cc1cc2ccccc2n1CCNC(=O)c1ccccc1F`, the “activity change, negative = cytotoxicity” value is inactive: 35.2%.

As to `O=c1c2sc3ccccc3c2n(Cc2ccc(F)cc2)c(=O)n1Cc1ccco1`, the “activity change, negative = cytotoxicity” value is inactive: 14.1%.

Regarding `CC(C)c1ccc(S(=O)(=O)c2nnn3c2nc(NCc2cccs2)c2sccc23)cc1`, the “activity change, negative = cytotoxicity” value was inactive: 10.7%.

For the compound `O=C(NCC(c1ccc2c(c1)OCO2)N1CCN(c2ccccc2)CC1)C(=O)Nc1ccccc1` (configuration not stated), the “activity change, negative = cytotoxicity” value was inactive: 6.92%.

For `O=C(Nc1ccc2nc(SCC(=O)N3CCCc4ccccc43)sc2c1)c1ccccc1F`, the “activity change, negative = cytotoxicity” value is inactive: -4.58%.

`Fc1ccc(Nc2nc(-c3cccc(Cl)c3)c3c(n2)-c2ccccc2OC3)cc1`: the “activity change, negative = cytotoxicity” value was inactive: -1.54%.

Regarding `O=C(Nc1cccc(C(=O)N2CCN(c3ccccc3)CC2)c1)c1nsc2ccccc12`, the “activity change, negative = cytotoxicity” value is inactive: -10.1%.

Consider `CCc1ccc(C2=C(C)C(N3CCC(C(=O)Nc4ccc(F)cc4)CC3)=NS2(=O)=O)cc1`, for which the “activity change, negative = cytotoxicity” value is inactive: 6.94%.

Consider `CCc1ccc2oc(C(=O)Nc3cc(Cl)ccc3OC)cc(=O)c2c1`, for which the “activity change, negative = cytotoxicity” value was inactive: 9.69%.

As to `Cc1c(C(=O)Nc2ccccc2)sc2nc(-c3cc4ccccc4oc3=O)[nH]c(=O)c12`, the “activity change, negative = cytotoxicity” value was inactive: 4.08%.

With `COc1cccc(C2CC(=O)Nc3c2c(=O)[nH]c2ncnn32)c1OC` (configuration not stated), the “activity change, negative = cytotoxicity” value is inactive: -1.65%.

With `Cc1cccc2cc(CN(C(=O)c3cccc(Cl)c3)c3ccccc3)c(=O)[nH]c12`, the “activity change, negative = cytotoxicity” value was inactive: -2.62%.

Consider `CNC(=O)C1CCC(Cn2c(=O)c3sccc3n(CC(=O)N3CCCC3)c2=O)CC1` (configuration not stated), for which the “activity change, negative = cytotoxicity” value is inactive: 0.624%.

For the compound `CCOc1ccc(C2C(C(N)=O)=C(C)Nc3nc(-c4ccc(OC)cc4)nn32)cc1` (configuration not stated), the “activity change, negative = cytotoxicity” value was inactive: 5.8%.

With `COc1ccccc1Nc1nn2c(=O)c3ccc(C(=O)NC4CCC(C)CC4)cc3nc2s1` (configuration not stated), the “activity change, negative = cytotoxicity” value is inactive: 14.3%.

Regarding `COc1ccccc1C(=O)Nc1cccc(OCc2cc(=O)n3c4c(sc3n2)CCCC4)c1`, the “activity change, negative = cytotoxicity” value is inactive: -0.544%.

As to `CCN(CC)S(=O)(=O)c1ccc2nc(NC(=O)c3ccccc3OC)sc2c1`, the “activity change, negative = cytotoxicity” value was inactive: -16.8%.

For the compound `Cc1nnc(N2CCC(C(=O)NCc3ccc(F)cc3)CC2)c2nn(-c3ccc(Cl)cc3)c(C)c12`, the “activity change, negative = cytotoxicity” value is inactive: -22.5%.

`O=c1c2sc3ccccc3c2n(Cc2ccccc2F)c(=O)n1-c1ccccc1Cl`: the “activity change, negative = cytotoxicity” value was inactive: 14.4%.

For `COc1cccc(CNC(=O)CSc2nc3ccccc3nc2Cc2ccccc2)c1`, the “activity change, negative = cytotoxicity” value is inactive: 11.7%.

Regarding `COc1ccccc1N1CCN(c2ccc(=O)n(CC(=O)O)n2)CC1`, the “activity change, negative = cytotoxicity” value is inactive: 9.45%.

With `O=C(COc1ccc(Cl)cc1)Nc1ccc(O)c(-c2nc3ccccc3s2)c1`, the “activity change, negative = cytotoxicity” value was inactive: -6.99%.

In the case of `Cc1ccc(Cn2c(C(=O)O)c(CNCCc3cccs3)c3ccc(C)cc32)cc1`, the “activity change, negative = cytotoxicity” value is inactive: 28.7%.

On to `O=C(NC1CC(=O)N(c2ccc(F)cc2)C1)c1ccc(S(=O)(=O)N2CCCC2)cc1` (configuration not stated), for which the “activity change, negative = cytotoxicity” value was inactive: 19.2%.

As for `CCN(C(=O)CSc1nc2ccccc2nc1Cc1cccc(OC)c1)c1cccc(C)c1`, the “activity change, negative = cytotoxicity” value was inactive: -2.53%.

For `Cc1ccc(NC(=O)Nc2nc3c(s2)CCCCCC3)cc1C`, the “activity change, negative = cytotoxicity” value was inactive: 17.3%.

Take `Cc1cc(Br)ccc1NC(=O)COc1cc(=O)n(C)c2ccccc12`: the “activity change, negative = cytotoxicity” value is inactive: -1.97%.

As to `COc1ccccc1NC(=O)c1ccc2[nH]c(C)cc(=O)c2c1`, the “activity change, negative = cytotoxicity” value was inactive: -0.707%.

For `COc1ccc(OCc2nc(-c3ccc(OC)c(OC)c3)no2)cc1`, the “activity change, negative = cytotoxicity” value is inactive: 23.2%.

`CC(=O)Nc1ccc(C)cc1-c1nc2ccccc2n(Cc2cccc(Br)c2)c1=O`: the “activity change, negative = cytotoxicity” value is inactive: -1.17%.

For `CCCc1nc2nc(C)c(NS(=O)(=O)c3ccc(C)c(C)c3)c(=O)n2[nH]1`, the “activity change, negative = cytotoxicity” value was inactive: 5.04%.

For `CCOC(=O)C1CCCN(C(=O)c2ccc(C)c(NC(=O)c3nsc4ccccc34)c2)C1` (configuration not stated), the “activity change, negative = cytotoxicity” value is inactive: -1.53%.

For `COc1cccc(NC(=O)CSc2nnc3[nH]c(=O)cc(-c4ccccc4)n23)c1`, the “activity change, negative = cytotoxicity” value was inactive: -11.4%.

For the compound `CCc1ccc(NS(=O)(=O)c2cc(Br)cc3c2N(C(C)=O)CC3)cc1`, the “activity change, negative = cytotoxicity” value is inactive: 0.225%.

Regarding `COc1ccc(CCNc2oc(/C=C/c3ccc(OC)c(OC)c3)nc2C#N)cc1`, the “activity change, negative = cytotoxicity” value was inactive: 3.03%.

With `CC(=O)Nc1c(C)nn(-c2ccccc2)c1N1CCC(C(=O)Nc2ccc(C)cc2Cl)CC1`, the “activity change, negative = cytotoxicity” value was inactive: 0.561%.

`COc1cccc(-n2ccnc2SCC(=O)Nc2nc3ccc(C)cc3s2)c1`: the “activity change, negative = cytotoxicity” value was inactive: 0.702%.

With `CCC(=O)N1c2ccccc2CC1C(=O)NCCc1ccccc1OC` (configuration not stated), the “activity change, negative = cytotoxicity” value was inactive: -14.8%.

Consider `CCc1ccc(-n2nc(C)c3c(C(=O)Nc4ccc(Cl)cc4)cc(C)nc32)cc1`, for which the “activity change, negative = cytotoxicity” value is inactive: 0.0515%.

For the compound `Cc1ccc(C)c(-c2ccc(=O)n(C(C)C(=O)Nc3ccccc3C(F)(F)F)n2)c1` (configuration not stated), the “activity change, negative = cytotoxicity” value was inactive: -0.126%.

In the case of `CCCCNC(=O)CSc1nc(-c2ccc(OC)cc2)cc(C(F)(F)F)n1`, the “activity change, negative = cytotoxicity” value is inactive: 16.6%.

In the case of `CCCOc1ccccc1C(=O)N1CCCCC1CCN1CCCCC1` (configuration not stated), the “activity change, negative = cytotoxicity” value is inactive: 1.16%.

`Cc1ccc(OCC(=O)Nc2nnc(SCc3cc(=O)n4cc(C)ccc4n3)s2)cc1`: the “activity change, negative = cytotoxicity” value is inactive: 7.14%.

With `Cc1noc(-c2ccc(N(C)Cc3ccccc3)c([N+](=O)[O-])c2)n1`, the “activity change, negative = cytotoxicity” value is inactive: -23.6%.

As to `COC(=O)c1ccccc1NC(=O)CCn1c(=O)c2cccn2c2cccnc21`, the “activity change, negative = cytotoxicity” value was inactive: 2.79%.

With `COc1ccc(C(=O)Nc2cc(-c3nc4ncccc4o3)ccc2C)cc1Br`, the “activity change, negative = cytotoxicity” value was inactive: 12.8%.

Take `COc1ccc(OC)c(-n2nnc(-c3nc(-c4ccc5c(c4)OCO5)no3)c2C)c1`: the “activity change, negative = cytotoxicity” value was inactive: -3.64%.

Regarding `O=C(NC1CC(=O)N(c2cccc(F)c2)C1)c1ccc(S(=O)(=O)N2CCCCC2)cc1` (configuration not stated), the “activity change, negative = cytotoxicity” value is inactive: 6.57%.
